Where a chain is given by its changes, count along the chain named. The list shows a part of the results.
T1: RBFOX1 RRM RbFoxmut (Fox-RRM*) (Homo sapiens, UniProt Q9NWB1 109-208, R118D;E147R;N151S;E152T)
T1 sequence: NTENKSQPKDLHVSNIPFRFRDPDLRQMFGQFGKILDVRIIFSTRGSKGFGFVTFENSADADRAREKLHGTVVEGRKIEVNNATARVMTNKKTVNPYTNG

B1: UAUAGCG (DNA:RNA)
RNA: GGGAGACCGGAAUUCAGAUUGUCCUAUAGCGUUAAAUCCCGUCGUAGCCACCA
DNA 1: CAATCTGAATTCCGGTCTCCC
DNA 2: TGGTGGCTACGACGGGATT
B2: AUGGAAG (DNA:RNA)
RNA: B1 RNA with U25A, A26U, U27G, A28G, G29A, C30A
DNA 1: CAATCTGAATTCCGGTCTCCC
DNA 2: TGGTGGCTACGACGGGATT
B3: AACGUUU (DNA:RNA)
RNA: B1 RNA with U25A, U27C, A28G, G29U, C30U, G31U
DNA 1: CAATCTGAATTCCGGTCTCCC
DNA 2: TGGTGGCTACGACGGGATT
B4: UGGCUCU (DNA:RNA)
RNA: B1 RNA with A26G, U27G, A28C, G29U, G31U
DNA 1: CAATCTGAATTCCGGTCTCCC
DNA 2: TGGTGGCTACGACGGGATT
B5: UCCCACA (DNA:RNA)
RNA: B1 RNA with A26C, U27C, A28C, G29A, G31A
DNA 1: CAATCTGAATTCCGGTCTCCC
DNA 2: TGGTGGCTACGACGGGATT
B6: GGCAUGC (DNA:RNA)
RNA: B1 RNA with U25G, A26G, U27C, G29U, C30G, G31C
DNA 1: CAATCTGAATTCCGGTCTCCC
DNA 2: TGGTGGCTACGACGGGATT
B7: UGCCAGC (DNA:RNA)
RNA: B1 RNA with A26G, U27C, A28C, G29A, C30G, G31C
DNA 1: CAATCTGAATTCCGGTCTCCC
DNA 2: TGGTGGCTACGACGGGATT
B8: AAAGCCU (DNA:RNA)
RNA: B1 RNA with U25A, U27A, A28G, G29C, G31U
DNA 1: CAATCTGAATTCCGGTCTCCC
DNA 2: TGGTGGCTACGACGGGATT
B9: AACUUAU (DNA:RNA)
RNA: B1 RNA with U25A, U27C, A28U, G29U, C30A, G31U
DNA 1: CAATCTGAATTCCGGTCTCCC
DNA 2: TGGTGGCTACGACGGGATT
B10: AACGAUC (DNA:RNA)
RNA: B1 RNA with U25A, U27C, A28G, G29A, C30U, G31C
DNA 1: CAATCTGAATTCCGGTCTCCC
DNA 2: TGGTGGCTACGACGGGATT
B11: UAAAGCG (DNA:RNA)
RNA: B1 RNA with U27A
DNA 1: CAATCTGAATTCCGGTCTCCC
DNA 2: TGGTGGCTACGACGGGATT
B12: UAGAUGU (DNA:RNA)
RNA: B1 RNA with U27G, G29U, C30G, G31U
DNA 1: CAATCTGAATTCCGGTCTCCC
DNA 2: TGGTGGCTACGACGGGATT
B13: UUUUGCC (DNA:RNA)
RNA: B1 RNA with A26U, A28U, G31C
DNA 1: CAATCTGAATTCCGGTCTCCC
DNA 2: TGGTGGCTACGACGGGATT
B14: UAGAGUG (DNA:RNA)
RNA: B1 RNA with U27G, C30U
DNA 1: CAATCTGAATTCCGGTCTCCC
DNA 2: TGGTGGCTACGACGGGATT
B15: ACGAAAA (DNA:RNA)
RNA: B1 RNA with U25A, A26C, U27G, G29A, C30A, G31A
DNA 1: CAATCTGAATTCCGGTCTCCC
DNA 2: TGGTGGCTACGACGGGATT
B16: GGUGACA (DNA:RNA)
RNA: B1 RNA with U25G, A26G, A28G, G29A, G31A
DNA 1: CAATCTGAATTCCGGTCTCCC
DNA 2: TGGTGGCTACGACGGGATT
B17: UUGCCGC (DNA:RNA)
RNA: B1 RNA with A26U, U27G, A28C, G29C, C30G, G31C
DNA 1: CAATCTGAATTCCGGTCTCCC
DNA 2: TGGTGGCTACGACGGGATT
B18: CCUCUGG (DNA:RNA)
RNA: B1 RNA with U25C, A26C, A28C, G29U, C30G
DNA 1: CAATCTGAATTCCGGTCTCCC
DNA 2: TGGTGGCTACGACGGGATT
B19: CCCACUC (DNA:RNA)
RNA: B1 RNA with U25C, A26C, U27C, G29C, C30U, G31C
DNA 1: CAATCTGAATTCCGGTCTCCC
DNA 2: TGGTGGCTACGACGGGATT
B20: GAACACU (DNA:RNA)
RNA: B1 RNA with U25G, U27A, A28C, G29A, G31U
DNA 1: CAATCTGAATTCCGGTCTCCC
DNA 2: TGGTGGCTACGACGGGATT
B21: GAGUGUC (DNA:RNA)
RNA: B1 RNA with U25G, U27G, A28U, C30U, G31C
DNA 1: CAATCTGAATTCCGGTCTCCC
DNA 2: TGGTGGCTACGACGGGATT
B22: GUCAUCA (DNA:RNA)
RNA: B1 RNA with U25G, A26U, U27C, G29U, G31A
DNA 1: CAATCTGAATTCCGGTCTCCC
DNA 2: TGGTGGCTACGACGGGATT
B23: ACGCAGU (DNA:RNA)
RNA: GGGAGACCGGAAUUCAGAUUGUCCACGCAGUUUAAAUCCCGUCGUAGCCACCA
DNA 1: CAATCTGAATTCCGGTCTCCC
DNA 2: TGGTGGCTACGACGGGATT
B24: UAAUCAA (DNA:RNA)
RNA: B1 RNA with U27A, A28U, G29C, C30A, G31A
DNA 1: CAATCTGAATTCCGGTCTCCC
DNA 2: TGGTGGCTACGACGGGATT
B25: GUACAAA (DNA:RNA)
RNA: B23 RNA with A25G, C26U, G27A, G30A, U31A
DNA 1: CAATCTGAATTCCGGTCTCCC
DNA 2: TGGTGGCTACGACGGGATT
B26: UCGGAAU (DNA:RNA)
RNA: B23 RNA with A25U, C28G, G30A
DNA 1: CAATCTGAATTCCGGTCTCCC
DNA 2: TGGTGGCTACGACGGGATT
B27: UGAUCGC (DNA:RNA)
RNA: B23 RNA with A25U, C26G, G27A, C28U, A29C, U31C
DNA 1: CAATCTGAATTCCGGTCTCCC
DNA 2: TGGTGGCTACGACGGGATT
B28: GGCCGAC (DNA:RNA)
RNA: B23 RNA with A25G, C26G, G27C, A29G, G30A, U31C
DNA 1: CAATCTGAATTCCGGTCTCCC
DNA 2: TGGTGGCTACGACGGGATT
B29: UCUCGGU (DNA:RNA)
RNA: B23 RNA with A25U, G27U, A29G
DNA 1: CAATCTGAATTCCGGTCTCCC
DNA 2: TGGTGGCTACGACGGGATT
B30: CGUCUGA (DNA:RNA)
RNA: B23 RNA with A25C, C26G, G27U, A29U, U31A
DNA 1: CAATCTGAATTCCGGTCTCCC
DNA 2: TGGTGGCTACGACGGGATT
B31: UACCCGA (DNA:RNA)
RNA: B23 RNA with A25U, C26A, G27C, A29C, U31A
DNA 1: CAATCTGAATTCCGGTCTCCC
DNA 2: TGGTGGCTACGACGGGATT

Biological target: T1, RBFOX1 RRM RbFoxmut (Fox-RRM*)
Assay: EMSA; HiTS-Eq, 1 nM pool, 10 min; buffer printed only for the single-RNA assays: 10 mM Tris pH 7.5, 150 mM NaCl, 3.4 mM EDTA, 0.001% NP-40, 30 C
Conditions: tags: His6 N-terminal (pET28a); label: 5' 32P
Summary of the method: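 Purified RbFox RRM, wild type or mutant, was incubated for 10 min in 50 µL with 1 nM of a 5′-radiolabelled RNA pool carrying 7 randomized nucleotides, whose flanks were annealed to DNA oligonucleotides, over a series of increasing protein concentrations. Unbound RNA was resolved on 8% native PAGE, cut out, reverse-transcribed, barcoded by PCR and sequenced on an Illumina HiSeq 2500. Relative association constants were derived from changes in read counts for each RNA species versus the control reaction and normalised to the cognate motif.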

Which binding signal does the source give for B1 here?
The binding signal was 0.0935 KA relative to UGCAUGU.

Which binding signal does the source give for B2 here?
Its binding signal is 0.149 KA relative to UGCAUGU.

B3 was tested. Which binding signal did it give?
The binding signal was 0.104 KA relative to UGCAUGU.

Which binding signal does the source give for B4 here?
Its binding signal is 0.0987 KA relative to UGCAUGU.

B5 was tested. Which binding signal did it give?
The binding signal was 0.106 KA relative to UGCAUGU.

How did the binding signal turn out when B6 was run?
The binding signal was 0.739 KA relative to UGCAUGU.

Which binding signal does the source give for B7 here?
Its binding signal is 0.0934 KA relative to UGCAUGU.

For B8, which binding signal is on record?
Its binding signal is 0.0705 KA relative to UGCAUGU.

For B9, which binding signal is on record?
Its binding signal is 0.12 KA relative to UGCAUGU.

How did the binding signal turn out when B10 was run?
Its binding signal is 0.0355 KA relative to UGCAUGU.

For B11, which binding signal is on record?
Its binding signal is 0.0985 KA relative to UGCAUGU.

For B12, which binding signal is on record?
Its binding signal is 0.0901 KA relative to UGCAUGU.

For B13, which binding signal is on record?
Its binding signal is 0.263 KA relative to UGCAUGU.

B14 was tested. Which binding signal did it give?
The binding signal was 0.163 KA relative to UGCAUGU.

B15 was tested. Which binding signal did it give?
The binding signal was 0.073 KA relative to UGCAUGU.

For B16, which binding signal is on record?
Its binding signal is 0.0642 KA relative to UGCAUGU.

B17 was tested. Which binding signal did it give?
The binding signal was 0.0955 KA relative to UGCAUGU.

For B18, which binding signal is on record?
Its binding signal is 0.0868 KA relative to UGCAUGU.

With B19 as the binder, how does the binding signal read?
The binding signal was 0.0625 KA relative to UGCAUGU.

With B20 as the binder, how does the binding signal read?
The binding signal was 0.0777 KA relative to UGCAUGU.

Which binding signal does the source give for B21 here?
The binding signal was 0.199 KA relative to UGCAUGU.

For B22, which binding signal is on record?
Its binding signal is 0.129 KA relative to UGCAUGU.

B23 was tested. Which binding signal did it give?
Its binding signal is 0.0815 KA relative to UGCAUGU.

Which binding signal does the source give for B24 here?
The binding signal was 0.0593 KA relative to UGCAUGU.

Which binding signal does the source give for B25 here?
Its binding signal is 0.0655 KA relative to UGCAUGU.

For B26, which binding signal is on record?
The binding signal was 0.118 KA relative to UGCAUGU.

For B27, which binding signal is on record?
Its binding signal is 0.0955 KA relative to UGCAUGU.

How did the binding signal turn out when B28 was run?
Its binding signal is 0.0759 KA relative to UGCAUGU.

B29 was tested. Which binding signal did it give?
Its binding signal is 0.0842 KA relative to UGCAUGU.

B30 was tested. Which binding signal did it give?
The binding signal was 0.109 KA relative to UGCAUGU.

Which binding signal does the source give for B31 here?
Its binding signal is 0.066 KA relative to UGCAUGU.
